Key:
[1] = biological target: T1, Recombinant human TNFR2-His Tag protein (Sino, Cat: 10417-H08H) (human, UniProt P20333 23-257); experiment: ELISA, Human-TNFR2-His coated at 0.5 µg/mL, anti-human IgG-HRP
T1 construct: Bought protein; also called human TNFR2-His protein; not shown: His tag
T1 sequence (looked up): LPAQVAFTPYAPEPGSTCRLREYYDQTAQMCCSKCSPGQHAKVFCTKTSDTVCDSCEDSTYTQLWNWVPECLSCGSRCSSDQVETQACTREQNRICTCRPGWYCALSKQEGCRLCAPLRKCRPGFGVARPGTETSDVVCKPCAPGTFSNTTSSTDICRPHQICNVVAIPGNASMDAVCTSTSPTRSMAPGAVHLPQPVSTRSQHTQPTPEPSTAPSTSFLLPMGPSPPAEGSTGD

[2] = biological target: T1, Recombinant human TNFR2-His Tag protein …; experiment: BLI (Octet Red96e), antibody on AHC sensor, 100 nM human TNFR2-His; column head 'single concentration'; unit inferred

B1: Antibody 18 (Fc fusion)
heavy: EVQLVESGGGLVQPGGSLRLSCAASGSRLDYYAVAWFRQAPGKEREEVSCITYSGGSTNYADSVKGRFTISRDNSKNTLYLQMNSLRAEDTAVYYCTTEPYGSSCPLSGYDTWGQGTLVTVSS[human IgG1 Fc omitted here]
notes: Humanized antibody
EC50 [1]: 11.6 ng/mL
Kd [2]: 1.09 nM

B2: Antibody 17 (Fc fusion)
heavy: EVQLVESGGGLVQPGGSLRLSCAASGSRLDYYAVAWFRQAPGKEREEVSCITYSGGSTNYADSVKGRFTISRDNAKNMVYLQMNKLKPEDTARYYCTTEPYGSSCPLSGYDTWGQGTQVTVSS[human IgG1 Fc omitted here]
notes: Humanized antibody
Kd [2]: 1.1 nM

B3: Antibody 19 (Fc fusion)
heavy: EVQLVESGGGLVQPGGSLRLSCAASGSRLDYYAVAWFRQAPGKEREEVSCITYSGGSTNYAESVKGRFTISRDNSKNTLYLQMNSLRAEDTAVYYCTTEPYGSSCPLSGYDTWGQGTLVTVSS[human IgG1 Fc omitted here]
notes: Humanized antibody
EC50 [1]: 3.06 ng/mL
Kd [2]: 1.03 nM

B4: Antibody 20 (Fc fusion)
heavy: EVQLVESGGGLVQPGGSLRLSCAASGSRLDYYAVAWVRQAPGKELEEVSCITYSGGSTNYADSVKGRFTISRDNSKNTLYLQMNSLRAEDTAVYYCTTEPYGSSCPLSGYDTWGQGTLVTVSS[human IgG1 Fc omitted here]
notes: Humanized antibody
EC50 [1]: 6.13 ng/mL
Kd [2]: 6.49 nM

B5: Antibody 21 (Fc fusion)
heavy: EVQLVESGGGLVQPGGSLRLSCAASGSRLDYYAVAWVRQAPGKELEEVSCITYSGGSTNYAESVKGRFTISRDNSKNTLYLQMNSLRAEDTAVYYCTTEPYGSSCPLSGYDTWGQGTLVTVSS[human IgG1 Fc omitted here]
notes: Humanized antibody
EC50 [1]: 17.4 ng/mL
Kd [2]: 5.5 nM
